Source: paper PMC4336329 (PLoS ONE, 2015)
The campaign covered roughly 310,000 compounds. About 2,200 (0.71%) showed an effect of 50% or more. Effects have a minus sign here. Some of the results follow.

target: human ether-à-go-go-related gene (hERG) potassium channel (human, UniProt Q12809); test: primary screen, population patch clamp on CHO cells stably expressing hERG
Sequence (Q12809 whole entry, looked up): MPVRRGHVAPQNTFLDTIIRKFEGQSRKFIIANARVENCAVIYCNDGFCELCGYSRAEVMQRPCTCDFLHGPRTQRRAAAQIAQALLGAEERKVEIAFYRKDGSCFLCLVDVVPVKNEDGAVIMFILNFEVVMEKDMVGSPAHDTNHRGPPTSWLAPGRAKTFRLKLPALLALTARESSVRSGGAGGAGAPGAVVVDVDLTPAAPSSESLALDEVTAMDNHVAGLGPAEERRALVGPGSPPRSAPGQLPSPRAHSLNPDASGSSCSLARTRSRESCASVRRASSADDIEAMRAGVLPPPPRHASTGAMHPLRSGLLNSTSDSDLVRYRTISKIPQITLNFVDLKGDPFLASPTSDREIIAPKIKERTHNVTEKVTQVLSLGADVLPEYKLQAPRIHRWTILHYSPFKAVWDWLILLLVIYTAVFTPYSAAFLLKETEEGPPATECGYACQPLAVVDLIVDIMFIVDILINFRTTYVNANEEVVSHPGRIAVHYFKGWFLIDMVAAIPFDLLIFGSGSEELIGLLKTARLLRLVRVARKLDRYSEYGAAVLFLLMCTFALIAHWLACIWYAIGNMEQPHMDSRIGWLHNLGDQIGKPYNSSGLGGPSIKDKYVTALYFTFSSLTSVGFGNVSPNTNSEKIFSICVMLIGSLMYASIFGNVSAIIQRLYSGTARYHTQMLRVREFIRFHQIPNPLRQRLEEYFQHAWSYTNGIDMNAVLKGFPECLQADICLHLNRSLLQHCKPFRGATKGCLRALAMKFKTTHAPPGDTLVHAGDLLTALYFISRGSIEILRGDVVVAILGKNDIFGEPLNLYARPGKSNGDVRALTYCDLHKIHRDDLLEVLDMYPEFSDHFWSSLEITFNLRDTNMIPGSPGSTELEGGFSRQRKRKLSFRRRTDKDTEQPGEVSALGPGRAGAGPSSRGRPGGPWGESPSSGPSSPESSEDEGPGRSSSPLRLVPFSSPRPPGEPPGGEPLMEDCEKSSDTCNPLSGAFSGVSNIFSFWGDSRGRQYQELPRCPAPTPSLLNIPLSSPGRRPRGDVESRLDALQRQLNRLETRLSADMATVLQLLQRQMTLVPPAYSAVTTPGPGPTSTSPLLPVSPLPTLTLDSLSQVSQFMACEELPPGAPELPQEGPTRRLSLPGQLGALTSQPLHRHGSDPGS

| SMILES | hERG current change (%, negative = inhibition) at 1uM [%] |
| --- | --- |
| CC(C)OC(=O)CC(=O)CSc1nc2c(cc1C#N)CCCCC2 | 12.2 |
| Cc1ccc(NC(=O)CCC(=O)OCC(=O)c2ccc(Oc3ccc([N+](=O)[O-])cc3)cc2)cc1C | 11.3 |
| Cc1cc(/C=C(\C#N)C(=O)NC2CCCCCC2)c(C)n1C | 13.1 |
| COC(=O)c1c(-c2cccs2)csc1NC(=O)CSc1ncnc2sc(C)c(C)c12 | 2.58 |
| CCCCCCCCCC[n+]1cccc(C(=O)N(CC)CC)c1.[Br-] | 3.8 |
| O=C(CNC(=O)c1ccccc1O)N/N=C/c1ccccn1 | 4.2 |
| CCCCn1c(N)c(N(CCC)C(=O)C2CCCC2)c(=O)[nH]c1=O | -2.47 |
| COc1ccc(OC)c(NC(=O)Nc2cc(NC(=O)Nc3cc(OC)ccc3OC)c(C)nc2C)c1 | 10.7 |
| Cn1c(CC(=O)Nc2ccccc2C(F)(F)F)c(Sc2ccccc2)c2ccccc21 | 11.6 |
| COc1ccccc1C(C[N+](=O)[O-])c1c(N)n(C)c(=O)n(C)c1=O (stereo not drawn) | 9.69 |
| Cc1ccc(SCc2ccc(C(=O)Nc3ccccc3Br)cc2)cc1 | -14.7 |
| CCOC(=O)C(NS(=O)(=O)c1ccc(Br)cc1)C(C)C (stereo not drawn) | -9.42 |
| CCN1CCN(S(=O)(=O)c2ccc(Cl)c(C(=O)Nc3cc(Cl)ccc3N3CCOCC3)c2)CC1 | -0.742 |
| c1ccc(Cc2noc(CN3CCN(Cc4ccc5c(c4)OCO5)CC3)n2)cc1 | 7.44 |
| CN(CCc1ccccn1)C(=O)c1cccnc1Oc1ccc(Cl)cc1 | 6.51 |
| COc1ccc2c(CCN)c[nH]c2c1.Cl | 14.4 |
| Cc1ccc(N2CCN(S(=O)(=O)c3ccc4oc(=O)ccc4c3)CC2)c(C)c1 | 20 |
| Cc1ccccc1OCC(=O)NNC(=O)CCc1ccccc1 | -2.18 |
| O=C(NCCCN1CCOCC1)C(C(=O)NCCCN1CCOCC1)c1ncc(C(F)(F)F)cc1Cl | 18.1 |
| C#CCOC(=O)CCC(=O)NCCc1ccccc1 | 7.64 |
| Cc1ccccc1OCC(O)CN1CCN(CCN2C(=O)c3cccc4cccc(c34)C2=O)CC1 (stereo not drawn) | -17.3 |
| CC(C)Cc1nnc(NC(=O)Cc2ccccc2[N+](=O)[O-])s1 | 2.31 |
| CCN(CC(=O)Nc1c(F)cccc1F)C(=O)CNC(=O)c1ccc(Br)o1 | 17.2 |
| CC1CCCCN1S(=O)(=O)c1ccc(C(=O)N(CCCN(C)C)c2nc3cc4c(cc3s2)OCO4)cc1.Cl (stereo not drawn) | -26 |
